# PubChem BioAssay AID330 (DTP/NCI, 2004)
# “And” between values parts separate entries of the source, which are not always exact repeats. Equal entries are not always repeated. Further values from the same series stand in other lists. Inconclusive results and toxic doses are left out.
# System: P388 leukemia ip, CD2F1 mice, survival T/C
# Test: NCI In Vivo Anticancer Drug Screen. Data for tumor model P388 Leukemia (intraperitoneal) in CD2F1 (CDF1) mice
# Conditions: endpoint: median survival time, higher = longer survival
# Protocol: The antitumor activity of compounds was measured in mice bearing transplantable tumors. Survival or tumor size were measured and the results are expressed as the measurement made in the treated group (T) divided by the measurement made in the vehicle treated control group (C). The tumor model used in this assay is P388 Leukemia (intraperitoneal) in CD2F1 (CDF1) mice
structure (smiles),measurement,setting,value
N[C@@H](Cc1ccc(N(CCCl)CCCl)cc1)C(=O)O,T/C,"dose: 0.5 mg/kg/injection, schedule: Q01DX009 (ip), vehicle: Klucel (hydroxypropylcellulose) (HPC)",303 % of control
same,T/C,"dose: 2.0 mg/kg/injection, schedule: Q01DX005 (ip), vehicle: water",267 % of control
same,T/C,"dose: 2.0 mg/kg/injection, schedule: Q01DX009 (ip), vehicle: Klucel (hydroxypropylcellulose) (HPC)",303 % of control
same,T/C,"dose: 2.0 mg/kg/injection, schedule: Q01DX009 (ip), vehicle: saline",259 % of control
same,T/C,"dose: 2.5 mg/kg/injection, schedule: Q01DX009 (ip), vehicle: saline",309 % of control
same,T/C,"dose: 3.0 mg/kg/injection, schedule: Q01DX005 (ip), vehicle: saline",409 % of control
same,T/C,"dose: 4.0 mg/kg/injection, schedule: Q01DX005 (ip), vehicle: water",267 % of control
same,T/C,"dose: 4.0 mg/kg/injection, schedule: Q01DX009 (ip), vehicle: saline",381 % of control and 390 % of control
same,T/C,"dose: 4.0 mg/kg/injection, schedule: Q01DX009 (ip), vehicle: suspension in saline",288 % of control
same,T/C,"dose: 4.5 mg/kg/injection, schedule: Q04DX003 (ip), vehicle: saline",310 % of control
same,T/C,"dose: 4.5 mg/kg/injection, schedule: Q04DX003 (ip), vehicle: water",300 % of control
same,T/C,"dose: 5.4 mg/kg/injection, schedule: Q04DX002 (ip), vehicle: saline",394 % of control and 416 % of control
same,T/C,"dose: 5.4 mg/kg/injection, schedule: Q04DX003 (ip), vehicle: saline",266 % of control and 292 % of control
same,T/C,"dose: 5.6 mg/kg/injection, schedule: Q04DX003 (ip), vehicle: saline",290 % of control
same,T/C,"dose: 6.0 mg/kg/injection, schedule: Q01DX005 (ip), vehicle: saline",319 % of control and 409 % of control
same,T/C,"dose: 6.0 mg/kg/injection, schedule: Q01DX009 (ip), vehicle: Klucel (hydroxypropylcellulose) (HPC)",87 % of control
same,T/C,"dose: 7.3 mg/kg/injection, schedule: Q04DX003 (ip), vehicle: saline",525 % of control
same,T/C,"dose: 7.5 mg/kg/injection, schedule: Q01DX001 (ip), vehicle: other",293 % of control
same,T/C,"dose: 7.5 mg/kg/injection, schedule: Q04DX003 (ip), vehicle: distilled water + Tween-80",277 % of control
same,T/C,"dose: 8.0 mg/kg/injection, schedule: Q01DX001 (ip), vehicle: suspension in saline",275 % of control
same,T/C,"dose: 8.0 mg/kg/injection, schedule: Q01DX005 (ip), vehicle: water",267 % of control
same,T/C,"dose: 8.0 mg/kg/injection, schedule: Q01DX009 (ip), vehicle: suspension in saline",285 % of control
same,T/C,"dose: 8.0 mg/kg/injection, schedule: Q04DX003 (ip), vehicle: saline",267 % of control and 276 % of control and 412 % of control
same,T/C,"dose: 8.0 mg/kg/injection, schedule: Q04DX003 (ip), vehicle: water",297 % of control
same,T/C,"dose: 8.4 mg/kg/injection, schedule: Q04DX003 (ip), vehicle: saline",381 % of control
same,T/C,"dose: 9.0 mg/kg/injection, schedule: Q04DX002 (ip), vehicle: saline",394 % of control and 409 % of control and 416 % of control
same,T/C,"dose: 9.0 mg/kg/injection, schedule: Q04DX003 (ip), vehicle: saline",403 % of control and 420 % of control
same,T/C,"dose: 10.0 mg/kg/injection, schedule: Q01DX001 (ip), vehicle: other",274 % of control and 412 % of control
same,T/C,"dose: 11.0 mg/kg/injection, schedule: Q04DX003 (ip), vehicle: saline",315 % of control
same,T/C,"dose: 12.0 mg/kg/injection, schedule: Q04DX003 (ip), vehicle: saline",441 % of control
same,T/C,"dose: 15.0 mg/kg/injection, schedule: Q01DX001 (ip), vehicle: other",412 % of control and 588 % of control
same,T/C,"dose: 15.0 mg/kg/injection, schedule: Q04DX003 (ip), vehicle: distilled water + Tween-80",95 % of control
same,T/C,"dose: 16.0 mg/kg/injection, schedule: Q01DX001 (ip), vehicle: suspension in saline",275 % of control
same,T/C,"dose: 16.0 mg/kg/injection, schedule: Q01DX009 (ip), vehicle: suspension in saline",285 % of control
same,T/C,"dose: 16.0 mg/kg/injection, schedule: Q04DX003 (ip), vehicle: saline",93 % of control
same,T/C,"dose: 16.5 mg/kg/injection, schedule: Q04DX003 (ip), vehicle: saline",90 % of control
same,T/C,"dose: 20.0 mg/kg/injection, schedule: Q04DX003 (iv), vehicle: saline",87 % of control
same,T/C,"dose: 22.5 mg/kg/injection, schedule: Q01DX001 (ip), vehicle: other",588 % of control
same,T/C,"dose: 22.5 mg/kg/injection, schedule: Q01DX001 (ip), vehicle: saline",436 % of control
same,T/C,"dose: 24.0 mg/kg/injection, schedule: Q04DX003 (ip), vehicle: saline",61 % of control
CC[C@]1(O)C[C@H]2CN(CCc3c([nH]c4ccccc34)[C@@](C(=O)OC)(c3cc4c(cc3OC)N(C=O)[C@H]3[C@@](O)(C(=O)OC)[C@H](OC(C)=O)[C@]5(CC)C=CCN6CC[C@]43[C@@H]65)C2)C1,T/C,"dose: 0.3 mg/kg/injection, schedule: Q01DX009 (ip), vehicle: saline",200 % of control
same,T/C,"dose: 0.5 mg/kg/injection, schedule: Q01DX010 (ip), vehicle: saline",209 % of control
same,T/C,"dose: 0.6 mg/kg/injection, schedule: Q01DX009 (ip), vehicle: water",95 % of control
same,T/C,"dose: 0.8 mg/kg/injection, schedule: Q04DX003 (ip), vehicle: saline",210 % of control
same,T/C,"dose: 0.8 mg/kg/injection, schedule: Q04DX003 (ip), vehicle: water",212 % of control
same,T/C,"dose: 0.84 mg/kg/injection, schedule: Q01DX005 (ip), vehicle: saline",94 % of control
same,T/C,"dose: 1.0 mg/kg/injection, schedule: Q01DX005 (ip), vehicle: saline",214 % of control
same,T/C,"dose: 1.0 mg/kg/injection, schedule: Q04DX004 (ip), vehicle: saline",213 % of control
same,T/C,"dose: 1.5 mg/kg/injection, schedule: Q01DX003 (ip), vehicle: saline",200 % of control
same,T/C,"dose: 1.5 mg/kg/injection, schedule: Q04DX004 (ip), vehicle: saline",216 % of control
same,T/C,"dose: 1.67 mg/kg/injection, schedule: Q04DX003 (ip), vehicle: saline",219 % of control
same,T/C,"dose: 1.8 mg/kg/injection, schedule: Q04DX003 (ip), vehicle: saline",214 % of control and 225 % of control
same,T/C,"dose: 2.0 mg/kg/injection, schedule: Q01DX003 (ip), vehicle: saline",202 % of control
same,T/C,"dose: 2.0 mg/kg/injection, schedule: Q04DX002 (ip), vehicle: saline",216 % of control
same,T/C,"dose: 2.7 mg/kg/injection, schedule: Q04DX003 (ip), vehicle: saline",94 % of control
same,T/C,"dose: 2.7 mg/kg/injection, schedule: Q04DX003 (iv), vehicle: saline",88 % of control
same,T/C,"dose: 3.0 mg/kg/injection, schedule: Q01DX003 (ip), vehicle: saline",200 % of control
same,T/C,"dose: 3.0 mg/kg/injection, schedule: Q04DX002 (ip), vehicle: saline",207 % of control
same,T/C,"dose: 3.33 mg/kg/injection, schedule: Q04DX002 (ip), vehicle: saline",219 % of control
same,T/C,"dose: 3.5 mg/kg/injection, schedule: Q04DX003 (ip), vehicle: saline",255 % of control
COc1cc(NS(C)(=O)=O)ccc1Nc1c2ccccc2nc2ccccc12,T/C,"dose: 1.56 mg/kg/injection, schedule: Q01DX009 (ip), vehicle: Klucel (hydroxypropylcellulose) (HPC)",98 % of control
same,T/C,"dose: 2.0 mg/kg/injection, schedule: Q04DX003 (oral), vehicle: other",103 % of control
same,T/C,"dose: 3.12 mg/kg/injection, schedule: Q01DX009 (ip), vehicle: Klucel (hydroxypropylcellulose) (HPC)",179 % of control
same,T/C,"dose: 4.0 mg/kg/injection, schedule: Q04DX003 (ip), vehicle: other",169 % of control
same,T/C,"dose: 4.0 mg/kg/injection, schedule: Q04DX003 (oral), vehicle: other",103 % of control
same,T/C,"dose: 6.25 mg/kg/injection, schedule: Q01DX001 (ip), vehicle: Klucel (hydroxypropylcellulose) (HPC)",160 % of control and 171 % of control
same,T/C,"dose: 6.25 mg/kg/injection, schedule: Q01DX009 (ip), vehicle: Klucel (hydroxypropylcellulose) (HPC)",157 % of control
same,T/C,"dose: 8.0 mg/kg/injection, schedule: Q04DX003 (ip), vehicle: other",216 % of control
same,T/C,"dose: 9.38 mg/kg/injection, schedule: Q04DX002 (oral), vehicle: dextrose",109 % of control
same,T/C,"dose: 12.5 mg/kg/injection, schedule: Q01DX001 (ip), vehicle: Klucel (hydroxypropylcellulose) (HPC)",182 % of control and 186 % of control
same,T/C,"dose: 12.5 mg/kg/injection, schedule: Q01DX009 (ip), vehicle: Klucel (hydroxypropylcellulose) (HPC)",165 % of control
same,T/C,"dose: 16.0 mg/kg/injection, schedule: Q04DX003 (ip), vehicle: other",207 % of control
same,T/C,"dose: 18.75 mg/kg/injection, schedule: Q04DX002 (oral), vehicle: dextrose",111 % of control and 115 % of control
same,T/C,"dose: 25.0 mg/kg/injection, schedule: Q01DX001 (ip), vehicle: Klucel (hydroxypropylcellulose) (HPC)",153 % of control and 196 % of control
same,T/C,"dose: 25.0 mg/kg/injection, schedule: Q01DX009 (ip), vehicle: Klucel (hydroxypropylcellulose) (HPC)",92 % of control
same,T/C,"dose: 32.0 mg/kg/injection, schedule: Q04DX003 (oral), vehicle: other",92 % of control
same,T/C,"dose: 75.0 mg/kg/injection, schedule: Q04DX003 (oral), vehicle: other",94 % of control
